{"source": "the RNAGym collection of RNA variant scans (doi:10.1093/nar/gkz1192)", "parents": {"B1": {"name": "CPEB3 Ribozyme (parent)", "chain": "UAACAGGGGGCCACAGCAGAAGCGUUCACGUCGCAGCCCCUGUCAGAUUCUGGUGAAUCUGCGAAUUCUGCUGUAUAUCUC"}}, "note": "The source gives no read counts; variants with many changes may rest on few reads.", "data": [{"variants_of": "B1", "test": "self-cleavage, relative activity (ratio to wild type); higher = more cleavage; in vitro, sequencing", "how_it_was_run": "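Barcoded CPEB3 ribozyme mutants, produced by rounds of error-prone PCR, self-cleaved while being transcribed with T7 RNA polymerase for 5 hours at 37°C and during a subsequent 15 min DNase I step before EDTA was added. Sequencing of template-switched cDNA on Illumina gave cleaved and total reads, and DNA sequencing assigned barcodes to variants. Each variant's relative activity is its cleaved/total read fraction divided by the unmutated ribozyme's fraction, averaged across three batches. A variant needed a minimum of 5 reads.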", "values": [{"variant": "CAACAGGGGGCUACAGCAGAAGCGUUCACGUCGCAGCCCCUGUCAGAUUCUGGUGAAUCUGCGAAUUCUGCUGUAUUUCUC", "note": "[U1C C12U A77U]", "self-cleavage": 1.26}, {"variant": "CAACAGGGGGCUACAGCAGAAGCGUUCACGUCGCAGCCCCUGUUAGAUUCUGGUGAAUCAGCGAAUUCUGCUGUAUAUCUC", "note": "[U1C C12U C44U U60A]", "self-cleavage": 0.11}, {"variant": "CAACAGGGGGCUACAGCAGAAGCGAUCACGUCGCAGCCCAUGUCAGAUUCUGGAGAAUCUGCGAAUUCUGCAGUAUACCUC", "note": "[U1C C12U U25A C40A U54A U72A U78C]", "self-cleavage": 0.06}, {"variant": "CAACAGGGGGCUACAGCAGAAGCGUUCACGUCGCAGCCCCUGUCAGAUUCUGGUGAAUCAGCGAAUUCUGCUGUAUGUCUC", "note": "[U1C C12U U60A A77G]", "self-cleavage": 0.25}, {"variant": "CAACAGGGGGCCAAAGCAGUAGCGUUCACGUCGCAGCCCCUGUCAGAUUCUGGUGAAUCUGCGAAAUCUGCUGUGUAUCUC", "note": "[U1C C14A A20U U66A A75G]", "self-cleavage": 0.12}, {"variant": "CAACAGGGGGCCAGAGCAGAAGCGUUCACGACGCAGCCCCUGUCAGAUUCUGGCGAAUCCGCGAGUUCCGCUGUAUAUCUC", "note": "[U1C C14G U31A U54C U60C A65G U69C]", "self-cleavage": 0.05}, {"variant": "CAACAGGGGGCCAUGGCAGAAGCGUUCGCGUUGCAGCCCCUGUCAGAUUCUGGUGAAUCUGCGAAUUCUGCCGUAUAUCUC", "note": "[U1C C14U A15G A28G C32U U72C]", "self-cleavage": 0.11}, {"variant": "CAACAGGGGGCCAUAGCAGUAGCGUUCACGUCGCAGCCCCUGUCUGAUCCUGGUGAAUCUGCGAAUUCUGCUGUUUAUCUC", "note": "[U1C C14U A20U A45U U49C A75U]", "self-cleavage": 0.03}, {"variant": "CAACAGGGGGCCAUAGCAGAAGCGUUCCCGUCGCACCCCCUGCCAGAUUCUGGUGAACCUGCGAAUUCUGCUGUAUAUCUC", "note": "[U1C C14U A28C G36C U43C U58C]", "self-cleavage": 0.05}, {"variant": "CAACAGGGGGCCACAGAAGAAGCGUUCACGUCGCAGCCCCCGUCAGAUUCUGGUGAAUCUGCGAAUUCUGCUGUAUAUCUC", "note": "[U1C C17A U41C]", "self-cleavage": 0.45}, {"variant": "CAACAGGGGGCCACAGGAGGAGCGUUCACGUCGCAGCCCCCGUCAGAUUCUGGUGAAUCUGCGAAUUCUGCUGUAUAUCUC", "note": "[U1C C17G A20G U41C]", "self-cleavage": 0.46}, {"variant": "CAACAGGGGGCCACAGGAGAAGCGUACACGUCGCAGCCCCCGUCAGAUUCUGGUGAAUCUGCGAAUUCUGCUGUAUAUCUC", "note": "[U1C C17G U26A U41C]", "self-cleavage": 0.07}, {"variant": "CAACAGGGGGCCACAGGAGAAGCGUUCACGUCGCAGCCCCUGUCAGAUUCUGGUGAAUCCGCGAACUCAGCUGUAUAUCUC", "note": "[U1C C17G U60C U66C U69A]", "self-cleavage": 0.12}, {"variant": "CAACAGGGGGCCACAGUGGAAGCGUUCACGUCGUAGCCCCUGUCAGAUUCUGGUGAAUCUGCGAAUUCUGCUGUAUAUCAC", "note": "[U1C C17U A18G C34U U80A]", "self-cleavage": 0.09}, {"variant": "CAACAGGGGGCCACAGUAGAAGCGUUCACGUCGUGGCCCCUGUCAGAUUCUGGUGAAUCUGCGAAUUCUGCUGUAUAUCUC", "note": "[U1C C17U C34U A35G]", "self-cleavage": 0.26}, {"variant": "CAACAGGGGGCCACAGUAGAAGCGUUCACGUCGCAGCCCCUGUCAGAUUCUGGCGAAACUGCGAAUUCUGCAGUAUAUCUC", "note": "[U1C C17U U54C U58A U72A]", "self-cleavage": 0.38}, {"variant": "CAACAGGGGGCCACAGCAGAAGAGUUCAAGUCGCAGCCCCUGUCAGAUUCUGGUGAAUCUGCGAAUUCUGCUGUAUACCUC", "note": "[U1C C23A C29A U78C]", "self-cleavage": 0.23}, {"variant": "CAACAGGGGGCCACAGCAGAAGAGUUCACGUCGCAGCCUUUGUCAGAUUCUGGUGAAUCUGCGAAUUCUGCUGUAUAUCUC", "note": "[U1C C23A C39U C40U]", "self-cleavage": 0.07}, {"variant": "CAACAGGGGGCCACAGCAGAAGGGUUCACGUCGCAGCCCCUGUCUGAUUCUGGUGAAUCUGCGAAUUCUGCUGUAUACCUC", "note": "[U1C C23G A45U U78C]", "self-cleavage": 0.21}, {"variant": "CAACAGGGGGCCACAGCAGAAGGGUUCACGCCGCAGCCCCUGUCAGAUUCUGGUGAAUGUGCUAAUUCCGCUGUAUAUCUC", "note": "[U1C C23G U31C C59G G63U U69C]", "self-cleavage": 0.03}, {"variant": "CAACAGGGGGCCACAGCAGAAGGGUUCACGUCGCAGCCCCUGACAGAUUCUGGUGAAUCUGCGAAUUCUGCUGUAUAUCCC", "note": "[U1C C23G U43A U80C]", "self-cleavage": 0.06}, {"variant": "CAACAGGGGGCCACAGCAGAAGUGUUCACGUCGCAGCCCCUGUCAGAUUCUGGUGAAUCUGCGGAUUCUGCUGUAUAUCUC", "note": "[U1C C23U A64G]", "self-cleavage": 0.45}, {"variant": "CAACAGGGGGCCACAGCAGAAGUGUACACGUCGCAGCCCCUGUCAGAUUCUGGUGAAUCUGCGAGUUCUGCUGUAUAUCCC", "note": "[U1C C23U U26A A65G U80C]", "self-cleavage": 0.06}, {"variant": "CAACAGGGGGCCACAGCAGAAGCGUUAGCGUCGAAACCCCUGUCAGAUUCUGGUGAAUCUGCGAAUUCUGCUGUAUAUCUC", "note": "[U1C C27A A28G C34A G36A]", "self-cleavage": 0.06}, {"variant": "CAACAGGGGGCCACAGCAGAAGCGUUGACGUCGCAGCCCCUGUCAGAUUCUGGUGAACCUGCGAAUUCAGCUGGUUAUCUC", "note": "[U1C C27G U58C U69A U74G A75U]", "self-cleavage": 0.16}, {"variant": "CAACAGGGGGCCACAGCAGAAGCGUUUACGUCGCAGCCCCUGACAGAUUCUGGUGAAUCUGCGAAUUCUGCUGUAUAUCUC", "note": "[U1C C27U U43A]", "self-cleavage": 0.29}, {"variant": "CAACAGGGGGCCACAGCAGAAGCGUUCAGGUCGCAGCCCCUGUCGGAUUCUGGUGAUUCUGCGAAUUCUGCUGUACAUCAC", "note": "[U1C C29G A45G A57U U76C U80A]", "self-cleavage": 0.05}, {"variant": "CAACAGGGGGCCACAGCAGAAGCGUUCAGGUCGCAGCCCCUGUCAGGUUAUGGUGAAUCUGCGAAUUCUGCUGUAUAUCUC", "note": "[U1C C29G A47G C50A]", "self-cleavage": 0.27}, {"variant": "CAACAGGGGGCCACAGCAGAAGCGUUCAUGUCGCAGCCCCUGUCAGAUUCUGGUGAAUCUGCUAAUUCUGCUGUAUAUCUC", "note": "[U1C C29U G63U]", "self-cleavage": 0.3}, {"variant": "CAACAGGGGGCCACAGCAGAAGCGUUCAUGUCGCAGCCCCUGUCAGAUUCUGGUGAAUCAGCGAAUUCUGCUGUAUAUCUC", "note": "[U1C C29U U60A]", "self-cleavage": 0.22}, {"variant": "CAACAGGGGGCCACAGCAGAAGCGUUCACGUGGCAGCCCCUGACUGAUUCUGGUGAGUCUGCGAAUUCUGCUGUAUAUCUC", "note": "[U1C C32G U43A A45U A57G]", "self-cleavage": 0.05}, {"variant": "CAACAGGGGGCCACAGCAGAAGCGUUCACGUUGCGGCCCCAGUCAGAUUCUGGUGAAUCUGCGAAUUCUGCUGUAUAUCCC", "note": "[U1C C32U A35G U41A U80C]", "self-cleavage": 0.06}, {"variant": "CAACAGGGGGCCACAGCAGAAGCGUUCACGUUGCAGCCCCUGUCCGAUUCUGGUGAGUCUGCGAAUUCUGCUGUGUAUCUC", "note": "[U1C C32U A45C A57G A75G]", "self-cleavage": 0.19}, {"variant": "CAACAGGGGGCCACAGCAGAAGCGUUCACGUUGCAGCCCCAGUCAGAUUCUGGUGAAUCUGCGAAUUCUGCUGUAUAUCUC", "note": "[U1C C32U U41A]", "self-cleavage": 0.26}]}]}
